Test results reported in the supplement of paper PMC11417369.
± gives the standard deviation of the averaged measurements. The list shows a part of the results.

system: PfAP2-LT AP2 domain (GST-tagged); test: gcPBM binding intensity (ln(normalized median fluorescence intensity)); higher = stronger DNA binding
Outline: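 Plasmodium falciparum DNA-binding domains carrying a GST tag were expressed in E. coli and applied for 1 h, at about 25 μg on average, to an Agilent 4 × 180k array. The array held primer-extended double-stranded 36-bp intergenic genomic probes together with negative controls, and binding took place in 1× PBS with 1% milk, 0.2 mg/ml BSA, 0.5% salmon testes DNA and 0.03% Triton X-100. An Alexa488 anti-GST antibody detected bound protein, and the array was scanned at 488 nm. Binding intensity is taken as the highest Masliner-normalised natural-log median intensity across replicate spots of either probe orientation.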

Row | Sequence | gcPBM binding intensity (ln)
1 | GAAAATAGAAAAAGCACACATATATTTTGGAATGTA [CACACA_site551] | 8.89 ± 0.54
2 | CTAAATATATAAAAAAGTACAAAATAAATAATAATT [XGTACX_site2442] | 8.79 ± 0.46
3 | TATATATTATGACCACCACACACCTATACACATAAC [CACACA_site8773] | 9.48 ± 0.24
4 | TATTTCTGATTATTTTGTACACATTATATATAATGC [XGTACX_site6990] | 8.93 ± 0.38
5 | TATTATATAACAAAAAGTACTTATAAGAAATATATA [XGTACX_site5467] | 8.6 ± 0.46
6 | TAATAAGTACCTTTTGCATGTGGCACGCTTTTTTTT [TGCATGCA_site573] | 8.95 ± 0.47
7 | AAATGAATTATATAATATATATAAATAAATAAATAA [CACACA_negctrl_site359] | 8.62 ± 0.49
8 | TTTTTTTTTTTTACCTGTACATGTCAGCAAACTTTT [XGTACX_site1171] | 8.85 ± 0.61
9 | GGAGAATAGTGGAAAACACACACGTTTGAGATATGG [CACACA_site1168] | 9.14 ± 0.42
10 | CAAAAACGGAAGTGGTGTACCGATATTATATAAACA [XGTACX_site4962] | 9.02 ± 0.53
11 | AACATTATAAGACACACACACACATATATATATATA [CACACA_site8259] | 10.3 ± 0.3
12 | ACTCTTAAAATGTATTGTACATAATTTTTACAAGGG [XGTACX_site6611] | 8.63 ± 0.4
13 | AGGTAGTTCTGTATCACACACATATATATATATATA [CACACA_site2214] | 9.825 ± 0.0071
14 | AAAAAAAATATATAAACACACATATTTATATACTCA [CACACA_site4984] | 8.72 ± 0.42
15 | ACATATAATAAAAAATGTACACACATAAGAAAATTT [XGTACX_site6153] | 9.16 ± 0.38
16 | ACTATAAATATATAAATATATATATATATATATATA [GTGCAC_negctrl_site65] | 9.24 ± 0.38
17 | TTTCCATTATGATATAGTACATAAATATATGTAATA [XGTACX_site6992] | 8.43 ± 0.36
18 | TTGTGTGTATGTATACATATATATATTGAGACGAAT [TGCATGCA_negctrl_site382] | 9.22 ± 0.31
19 | TATGTCAATTTTCATACATGCGCATAATCTTTATTT [TGCATGCA_site807] | 8.98 ± 0.45
20 | ATAAATAAGATACGTACACACATATACAAAATATAC [CACACA_site3661] | 9.27 ± 0.39
21 | TAAATACACTGTAGCGCACACGGCCAAAAAAAAAAA [CACACA_site1818] | 9.21 ± 0.38
22 | TACTATCTATACAATACACACAAAAAAAAAAAAATA [CACACA_site3981] | 8.95 ± 0.41

Row | Sequence | gcPBM binding intensity (ln)
23 | TTATTATCCTATATTTCTTTTCCTTCTTCAAAATTA [CACACA_negctrl_site1314] | 8.38 ± 0.48
24 | TAATATCATTTATATTGTACTATAACAAAATCTATA [XGTACX_site7700] | 8.45 ± 0.48
25 | AATTGTAAATTGGGCACTTATAAAAATGAACAAATA [CACACA_negctrl_site1583] | 8.81 ± 0.46
26 | TCATAAAGAACAAAGTGTACCTATATATTACATACA [XGTACX_site7595] | 8.67 ± 0.4
27 | TATAAAACCCTACTGTTTCTTCTTTATTGATATATT [TGCATGCA_negctrl_site285] | 8.7 ± 0.53
28 | AAAGTTTTTATACATACACACCTATAAATTAAGTGC [CACACA_site7198] | 8.81 ± 0.32
29 | GAAAGAATAAAATAAACATGCAAATAAAACATAAAA [TGCATGCA_site471] | 9.06 ± 0.52
30 | TTTTATTTTTTCTCACGTACAAATATATAATTTTTT [XGTACX_site6952] | 8.57 ± 0.47
31 | ATGAATATAAAATATACACACTTATATATCGAATGA [CACACA_site6240] | 8.84 ± 0.38
32 | TACATATGGCACATATGTACACACGTATAGATAATA [XGTACX_site4123] | 9.1 ± 0.32
33 | AATATATCCTATTCGAACAAAAATACATGCACATAT [CACACA_negctrl_site1058] | 8.91 ± 0.35
34 | GTATATATATATATATGTACATATATGTAGATATAT [XGTACX_site5431] | 9.16 ± 0.23
35 | ATATGTACGCAAGGTGCACACTGGTGCATTAAAAAA [CACACA_site1801] | 9.26 ± 0.63
36 | AAAAAAAAAATGTGCACACGCGTACACCCAAAAAAA [CACACA_site5149] | 9.19 ± 0.44
37 | TTTTTGTATCCTTCTTCTTTTTCCAGACTACATTAT [XGTACX_negctrl_site216] | 8.87 ± 0.52
38 | TATAAAAATAATATTACACACATGTAAAATGGCTGT [CACACA_site5755] | 9.02 ± 0.33
39 | TTGTGGATTTTGTGCGCACACACATGCAAAAAGAAA [CACACA_site1147] | 9.4 ± 0.43
40 | TCTCAGTAAATTAAATGTACATAAGGGAGGAACTAT [XGTACX_site8045] | 8.84 ± 0.33
41 | TAAATATATGCATATACACACAACAAAAAAATATAT [CACACA_site2341] | 9.29 ± 0.49
42 | CACAGACATATATATACACACTTTTATTTAAATAAC [CACACA_site4962] | 8.94 ± 0.39
43 | AACATATAAATAAACTGTACATATATATATATATAT [XGTACX_site1056] | 9.42 ± 0.3
44 | AATATTACGTGTTTGGTATTTTTCGATGTTGGCAGG [XGTACX_negctrl_site59] | 8.82 ± 0.53
